Screen size: about 310,000 compounds; about 2,200 (0.71%) showed an effect of 50% or more. Effects have a minus sign here. The list shows a part of the results.

For this assay, the target named is human ether-à-go-go-related gene (hERG) potassium channel (human, UniProt Q12809). The experiment in a line: primary screen, population patch clamp on CHO cells stably expressing hERG.
human ether-à-go-go-related gene (hERG) potassium channel, sequence (Q12809 whole entry, looked up): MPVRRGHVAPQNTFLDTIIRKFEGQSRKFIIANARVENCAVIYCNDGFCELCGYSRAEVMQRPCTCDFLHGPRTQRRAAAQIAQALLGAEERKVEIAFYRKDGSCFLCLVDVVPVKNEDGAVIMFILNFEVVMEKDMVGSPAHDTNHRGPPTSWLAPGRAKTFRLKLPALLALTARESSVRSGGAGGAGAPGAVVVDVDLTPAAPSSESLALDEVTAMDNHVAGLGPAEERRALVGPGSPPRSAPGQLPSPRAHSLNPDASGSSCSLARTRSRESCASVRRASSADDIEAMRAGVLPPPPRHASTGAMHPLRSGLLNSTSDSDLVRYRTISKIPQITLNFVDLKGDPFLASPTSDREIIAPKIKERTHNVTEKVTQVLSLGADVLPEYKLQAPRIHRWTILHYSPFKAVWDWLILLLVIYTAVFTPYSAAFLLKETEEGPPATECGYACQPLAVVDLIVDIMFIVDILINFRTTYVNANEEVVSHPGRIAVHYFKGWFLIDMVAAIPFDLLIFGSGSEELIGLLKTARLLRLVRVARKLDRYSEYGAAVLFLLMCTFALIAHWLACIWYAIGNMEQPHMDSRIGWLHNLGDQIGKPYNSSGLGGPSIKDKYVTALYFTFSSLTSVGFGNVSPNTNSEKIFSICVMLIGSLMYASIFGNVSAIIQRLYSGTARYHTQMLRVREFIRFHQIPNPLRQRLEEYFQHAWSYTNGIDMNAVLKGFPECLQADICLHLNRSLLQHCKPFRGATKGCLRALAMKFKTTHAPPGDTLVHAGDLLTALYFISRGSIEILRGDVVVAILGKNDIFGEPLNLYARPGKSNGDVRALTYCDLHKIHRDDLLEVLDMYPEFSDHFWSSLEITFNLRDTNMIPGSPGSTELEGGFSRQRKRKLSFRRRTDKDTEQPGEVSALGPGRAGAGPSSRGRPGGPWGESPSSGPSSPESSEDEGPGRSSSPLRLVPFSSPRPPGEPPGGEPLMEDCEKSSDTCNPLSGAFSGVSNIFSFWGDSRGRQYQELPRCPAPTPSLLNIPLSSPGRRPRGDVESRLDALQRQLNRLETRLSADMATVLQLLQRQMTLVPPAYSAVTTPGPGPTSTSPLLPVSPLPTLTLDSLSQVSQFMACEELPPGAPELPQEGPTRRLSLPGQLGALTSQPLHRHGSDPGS
As to `COc1cc([N+](=O)[O-])cc(/C=N/NC(=O)c2cccnc2)c1O`, the “hERG current change (%, negative = inhibition) at 1uM” value worked out at 9.72%. With `CC(C)(C)OC(=O)N1CCCC(C(=O)CC#N)C1` (centres unmarked) the figure was 10.1%. With `COc1ccc(OC)c(-c2cc(C(=O)Nc3cccc(Cl)c3)no2)c1` the figure was 2.87%. With `COc1cc(OC)c(C(=O)OCCCOC(=O)c2cc(OC)c(OC)cc2OC)cc1OC` the figure was 2.46%; with `CCN(CC)CCCNC(=O)C1CCC(=O)N(c2ccc(OC)cc2)C1c1ccc(F)cc1` (centres unmarked), 10.3%; with `O=C(CSC1CC(=O)N(c2ccc(C(=O)O)cc2)C1=O)Nc1ccc(Cl)cc1` (centres unmarked), 7.5%. Turning to `CC(C)(C)c1cc(NC(=O)CSc2nnc(N)s2)n(-c2ccccc2)n1`, the “hERG current change (%, negative = inhibition) at 1uM” value is -0.657%. With `CSCCC(NC(=O)c1ccco1)C(=O)Nc1ccc(C)c(S(=O)(=O)N2CCOCC2)c1` (centres unmarked) the figure was 5.26%. With `CC(C)OC(=O)Cn1nnc2c(cnn2-c2ccccc2)c1=O` the figure was 8.24%; with `NC(=O)c1ccsc1NC(=O)CSc1nc2ccccc2c(=O)n1CCCO`, 2.67%; with `CCN(CC)S(=O)(=O)c1cc(C(=O)Nc2cccnc2)ccc1Cl`, -40.3%. As to `CN(c1ccc(C(=O)N2CCCCC2)cc1)S(=O)(=O)c1ccccc1`, the “hERG current change (%, negative = inhibition) at 1uM” value was 4.95%. With `Cc1nn(C)c(C)c1/C=C(\C#N)C(N)=O` the figure was 6.32%; with `CCCCNC(=O)CSc1nc2n[nH]c(C)c2c(=N)n1-c1cccc(Cl)c1C`, -1.8%; with `COc1cc(C(=O)Nc2ccc(S(=O)(=O)N(C)c3ccccc3)cc2)cc(OC)c1OC`, 7.74%. For `Cc1nc(NCC(c2ccccc2)N(C)C)c2c(C)c(C)sc2n1` (centres unmarked) the value was -36%; for `CC(=O)Nc1cccc(NC(=O)CSc2ccc3nnc(CCNC(=O)c4ccccc4)n3n2)c1`, 7.88%.

For `CC1Cc2nc(SCC(=O)NC3CCCCC3)n(C)c(=O)c2S1` (centres unmarked), the “hERG current change (%, negative = inhibition) at 1uM” value is given as 4.05%. With `CCCCOC(=O)Nc1ccc(N2CCOCC2)cc1` the figure was 5.16%; with `NS(=O)(=O)c1ccc(CNS(=O)(=O)c2cc(C(=O)O)ccc2Cl)cc1`, 15.3%; with `Cc1cc(C)cc(NC(=O)C2CCCN(c3ncccn3)C2)c1` (centres unmarked), 6.6%. For `COc1cc(OC)cc(OCC(O)Cn2cnc(-c3ccccc3)c2)c1` (centres unmarked) the value was 6.31%; for `COC(=O)c1ccc(NC(=O)Nc2ccc3c(c2)nc(C)n3C)cc1`, 6.26%. With `CCNC(=S)Nn1cnc2ccccc21`, the “hERG current change (%, negative = inhibition) at 1uM” value is -2.17%.

`Cc1ccc(NC(=O)c2sc(Cl)nc2-c2ccccc2)cc1C`: the “hERG current change (%, negative = inhibition) at 1uM” value is on record as -3.34%.

With `O=C1CCCc2c1nn(-c1ccccc1)[n+]2[O-]`, the “hERG current change (%, negative = inhibition) at 1uM” value stood at 6.47%.

Take `O=C1CSC(c2ccccc2[N+](=O)[O-])N1c1ccc(O)cc1` (centres unmarked): the “hERG current change (%, negative = inhibition) at 1uM” value was determined as 13.2%. With `O=C(CN1C(=O)CS/C1=C\c1nc(-c2ccc(Cl)cc2)cs1)Nc1cccnc1Cl` the figure was 13.2%; with `Cc1c(C(=O)N2CCCCC2)sc(NC(=O)c2ccco2)c1C#N`, 10.8%; with `Cc1ccc(C(=O)N(CN2CCCC2=O)c2ccccc2)cc1`, 7.47%.

On to `COc1ccc(C2C=C(c3ccc(Br)cc3)Nc3nc(N4C(=O)CCC4=O)nn32)cc1` (centres unmarked), for which the “hERG current change (%, negative = inhibition) at 1uM” value came to 5.92%. For `COc1ccc(-c2csc(NC(=O)c3cc(=O)c4ccccc4o3)n2)cc1OC` the value was 11.4%; for `Cc1ccc(NC(=O)N2CCc3ccccc3C2)cc1`, 8.48%; for `CCCc1[nH]nc2c1C(c1ccc(O)cc1OCC)C(C#N)=C(N)O2` (centres unmarked), 10.7%.

In the case of `COc1ccccc1CNC(=O)CN1CCN(S(=O)(=O)c2cccs2)CC1`, the “hERG current change (%, negative = inhibition) at 1uM” value was found to be 20.9%. With `COC(=O)c1ccc(CNC(=O)CCc2c[nH]c3ccccc23)cc1` the figure was 11.5%. With `Cc1ccccc1C(=O)NC(=S)NCC1CCCO1` (centres unmarked) the figure was 6.07%; with `CCN(CC)S(=O)(=O)c1cccc(NC(=O)CCNC(=O)NC23CC4CC(CC(C4)C2)C3)c1`, 5.69%. For `CC(=O)NCC(=O)OCC(=O)c1ccccc1` the value was 3.53%; for `COCCN(C(=O)c1ccccc1F)c1nc(-c2ccc(OC)cc2)cs1`, 4.47%; for `COc1ccc([C@@H]2CC=C(C(=O)O)CN2S(=O)(=O)c2ccc(Cl)cc2)cc1`, 2.93%. As to `O=C(COc1ccc2oc(-c3ccco3)cc(=O)c2c1)N1CCCCC1`, the “hERG current change (%, negative = inhibition) at 1uM” value is on record as 3.1%. With `O=C(CSc1nc2ccccc2o1)N/N=C/c1ccc(C(=O)O)cc1` the figure was 28.4%; with `CC(C)(C)OC(=O)NCc1n[nH]c(=S)n1C1CC1`, 13.7%; with `CC(=O)NCCC(=O)Nc1nc(-c2cccs2)c(-c2cccs2)s1`, -1.33%. For `CC1(C)CC(=O)C(C=Nc2ccc(Cl)cn2)=C(O)C1` the value was 9.04%.

In the case of `C=CCn1c(SCc2c(C)noc2C)nc2ccccc2c1=O`, the “hERG current change (%, negative = inhibition) at 1uM” value is 5.14%. Consider `Cc1cc2nc(C)n(CCCN)c2cc1C.Cl`, for which the “hERG current change (%, negative = inhibition) at 1uM” value is on record as 10.9%. As to `CC(=O)NC1(c2nnnn2CCOC(=O)Nc2ccc(Cl)cc2)CCCCC1`, the “hERG current change (%, negative = inhibition) at 1uM” value was -9.92%. For `COc1ccc(CC(=O)NNC(=O)c2ccco2)cc1` the value was 9.94%; for `CC(=O)Cc1c[nH]c2ccccc12`, 9.66%; for `CN1C(=O)/C(=C\c2cc(Br)cs2)c2ccccc21`, 12.7%. With `CC(C)OC(=O)CSc1nnc(SCc2cccc3ccccc23)s1` the figure was 8.14%; with `O=C(NCCCn1ccnc1)c1ccccc1Cl`, 13.5%; with `N=c1sccn1CC(=O)NC(=O)NC1CCCC1`, 1.39%. With `CCCN(CCC)C(=O)Cc1coc2ccc3ccccc3c12` the figure was 8.75%; with `CC(=O)N1CCN=C1SCc1ccc(Cl)cc1`, 7.81%.

Take `CC(C)C1N=C2c3ccccc3N=C(SCC(=O)NCCc3ccc(S(N)(=O)=O)cc3)N2C1=O` (centres unmarked): the “hERG current change (%, negative = inhibition) at 1uM” value is listed as 14.2%. `Cc1ccc2sc(N(CCCN(C)C)C(=O)c3ccc(S(=O)(=O)N(C)Cc4ccccc4)cc3)nc2c1C.Cl`: the “hERG current change (%, negative = inhibition) at 1uM” value is on record as -1.03%.

(Values after PMC4336329 (PLoS ONE, 2015).)
